Laboratory results as given in the supplement of paper PMC10037445.
Whole data set: some 2,900 compounds, median “NF-kB SEAP reporter activity, fold change vs agonist alone” near 0.99, cut for the highest 2% near 2.6. The list shows a part of the results.

Tests used:
[1] = test system: RAW-Dual; test: NF-kB SEAP reporter activity, fold change vs agonist alone; cytotoxicity flag (confluency mask): cytotoxic (confluency <70% of control); higher = enhanced NF-kB activity
Summary of the method: (§1)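 After 50 nL of library stock was delivered by pin tool to RAW-Dual macrophages (50,000 cells/well, DMEM, 384-well plates), a PRR agonist was added 1 h later and the plates were kept at 37 °C, 5% CO2. Twenty hours later, IRF was read from supernatant by QuantiLuc luminescence and NF-κB by QuantiBlue absorbance at 620 nm. Reporter activity is stated as fold change over agonist-alone wells. Wells with IncuCyte confluency under 70% of agonist controls in both mask sets were counted as cytotoxic.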

[2] = test system: RAW-Dual; test: NF-kB SEAP reporter activity, fold change vs agonist alone; higher = enhanced NF-kB activity
Summary of the method: as §1

[3] = test system: RAW-Dual; test: NF-kB SEAP reporter activity, fold change vs agonist alone; cytotoxicity flag (confluency mask): not cytotoxic; higher = enhanced NF-kB activity
Summary of the method: as §1

[4] = agonist: ODN 1826 (TLR9) 0.5 ug/mL
[5] = agonist: Pam2CSK4 (TLR2/6) 0.1 ug/mL
[6] = agonist: Pam3CSK4 (TLR2/1) 0.1 ug/mL
[7] = library stock concentration (final ~1000-fold dilution): 10 mM, cytotoxicity flag (confluency mask): cytotoxic (confluency <70% of control), agonist: Imiquimod (TLR7) […]
[8] = library stock concentration (final ~1000-fold dilution): 10 mM, cytotoxicity flag (confluency mask): cytotoxic (confluency <70% of control), agonist: MPLA (TLR4) […]
[9] = library stock concentration (final ~1000-fold dilution): 10 mM, cytotoxicity flag (confluency mask): not cytotoxic, agonist: Imiquimod (TLR7) […]
[10] = library stock concentration (final ~1000-fold dilution): 10 mM, cytotoxicity flag (confluency mask): not cytotoxic, agonist: MPLA (TLR4) […]
[11] = library stock concentration (final ~1000-fold dilution): 10 mM water, cytotoxicity flag (confluency mask): not cytotoxic, agonist: Imiquimod (TLR7) […]
[12] = library stock concentration (final ~1000-fold dilution): 10 mM water, cytotoxicity flag (confluency mask): not cytotoxic, agonist: MPLA (TLR4) […]

Compound: Cc1cc(C=Cc2ccc3cc(N(C)C)ccc3[n+]2C)c(C)n1-c1ccccc1 (library stock concentration (final ~1000-fold dilution): 10 mM)
- NF-kB SEAP reporter activity ([1]; agonist: LPS (TLR4) 0.1 ug/mL): 0.207
- NF-kB SEAP reporter activity [1, 4]: 1.8
- NF-kB SEAP reporter activity [1, 5]: 0.0623
- NF-kB SEAP reporter activity [1, 6]: 0.134

Compound: Cc1cc(C=Cc2ccc3cc(N(C)C)ccc3[n+]2C)c(C)n1-c1ccccc1
- NF-kB SEAP reporter activity [2, 7]: 2.11
- NF-kB SEAP reporter activity [2, 8]: 0.785

Compound: Cn1ncc(Cl)c1-c1cc(C(=O)NC(CN)Cc2ccc(F)c(F)c2)oc1Cl (stereo not given) (library stock concentration (final ~1000-fold dilution): 10 mM)
- NF-kB SEAP reporter activity ([3]; agonist: LPS (TLR4) 0.1 ug/mL): 1.03
- NF-kB SEAP reporter activity [3, 4]: 2.35
- NF-kB SEAP reporter activity [3, 5]: 1.07
- NF-kB SEAP reporter activity [3, 6]: 1.44

Compound: Cn1ncc(Cl)c1-c1cc(C(=O)NC(CN)Cc2ccc(F)c(F)c2)oc1Cl (stereo not given)
- NF-kB SEAP reporter activity [2, 9]: 1.61
- NF-kB SEAP reporter activity [2, 10]: 1.61

Compound: CCC(C)C(NC(=O)C(CCCCN)NC(=O)C(CCC(=O)O)NN)C(=O)NC(CCC(N)=O)C(=O)NC(C)C(=O)NC(CCCCN)C(=O)N1CCCC1C(=O)NC(C)C(=O)C(=O)C(CC(C)C)NC(=O)C(CCC(N)=O)NC(=O)C(NC(=O)C(NC(=O)C(CCCNC(=N)N)NC(=O)C(Cc1ccccc1)NC(=O)C(CCCCNNC(Cc1ccccc1)C(=O)NC(CO)C(=O)NC(CCC(=O)O)C(=O)NC(CO)C(=O)NC(C(=O)NC(CC(N)=O)C(=O)NC(C=O)CO)C(C)O)NC(=O)C(Cc1ccccc1)NC(=O)C(CO)NC(=O)C(CCC(=O)O)NC(=O)C(CO)NC(=O)C(NC(=O)C(CC(N)=O)NC(=O)C(N)CO)C(C)O)C(C)C)C(C)O (stereo not given)
- NF-kB SEAP reporter activity [2, 11]: 0.927
- NF-kB SEAP reporter activity [2, 12]: 1.03

Compound: CCC(C)C(NC(=O)C(CCCCN)NC(=O)C(CCC(=O)O)NN)C(=O)NC(CCC(N)=O)C(=O)NC(C)C(=O)NC(CCCCN)C(=O)N1CCCC1C(=O)NC(C)C(=O)C(=O)C(CC(C)C)NC(=O)C(CCC(N)=O)NC(=O)C(NC(=O)C(NC(=O)C(CCCNC(=N)N)NC(=O)C(Cc1ccccc1)NC(=O)C(CCCCNNC(Cc1ccccc1)C(=O)NC(CO)C(=O)NC(CCC(=O)O)C(=O)NC(CO)C(=O)NC(C(=O)NC(CC(N)=O)C(=O)NC(C=O)CO)C(C)O)NC(=O)C(Cc1ccccc1)NC(=O)C(CO)NC(=O)C(CCC(=O)O)NC(=O)C(CO)NC(=O)C(NC(=O)C(CC(N)=O)NC(=O)C(N)CO)C(C)O)C(C)C)C(C)O (stereo not given) (library stock concentration (final ~1000-fold dilution): 10 mM water)
- NF-kB SEAP reporter activity ([3]; agonist: LPS (TLR4) 0.1 ug/mL): 1.1
- NF-kB SEAP reporter activity [3, 4]: 1.16
- NF-kB SEAP reporter activity [3, 5]: 1.13
- NF-kB SEAP reporter activity [3, 6]: 1.74

Compound: O=C(O)[C@H](O)Cc1ccc(O)c(O)c1
- NF-kB SEAP reporter activity [2, 11]: 0.919
- NF-kB SEAP reporter activity [2, 12]: 1.04

Compound: O=C(O)[C@H](O)Cc1ccc(O)c(O)c1 (library stock concentration (final ~1000-fold dilution): 10 mM water)
- NF-kB SEAP reporter activity ([3]; agonist: LPS (TLR4) 0.1 ug/mL): 1.19
- NF-kB SEAP reporter activity [3, 4]: 1.22
- NF-kB SEAP reporter activity [3, 5]: 1.1
- NF-kB SEAP reporter activity [3, 6]: 1

Compound: Cn1cc(C2=C(c3cccc(N)c3)C(=O)NC2=O)c2ccccc21
- NF-kB SEAP reporter activity [2, 9]: 1.55
- NF-kB SEAP reporter activity [2, 10]: 1.7

Compound: Cn1cc(C2=C(c3cccc(N)c3)C(=O)NC2=O)c2ccccc21 (library stock concentration (final ~1000-fold dilution): 10 mM)
- NF-kB SEAP reporter activity ([3]; agonist: LPS (TLR4) 0.1 ug/mL): 1.83
- NF-kB SEAP reporter activity [3, 4]: 2.18
- NF-kB SEAP reporter activity [3, 5]: 1.59
- NF-kB SEAP reporter activity [3, 6]: 2.2

Compound: [O-][n+]1cccc(-c2nc3c(Cl)cccc3cc2C(Nc2ncnc3cccnc23)C(F)(F)F)c1 (stereo not given) (library stock concentration (final ~1000-fold dilution): 10 mM)
- NF-kB SEAP reporter activity ([3]; agonist: LPS (TLR4) 0.1 ug/mL): 2.33
- NF-kB SEAP reporter activity [3, 4]: 1.3
- NF-kB SEAP reporter activity [3, 5]: 0.992
- NF-kB SEAP reporter activity [3, 6]: 1.38

Compound: [O-][n+]1cccc(-c2nc3c(Cl)cccc3cc2C(Nc2ncnc3cccnc23)C(F)(F)F)c1 (stereo not given)
- NF-kB SEAP reporter activity [2, 9]: 0.648
- NF-kB SEAP reporter activity [2, 10]: 1.56

Compound: CCCN(CCC)CCc1cccc2c1CC(=O)N2.Cl (library stock concentration (final ~1000-fold dilution): 10 mM)
- NF-kB SEAP reporter activity ([3]; agonist: LPS (TLR4) 0.1 ug/mL): 1.01
- NF-kB SEAP reporter activity [3, 4]: 1.04
- NF-kB SEAP reporter activity [3, 5]: 1.06
- NF-kB SEAP reporter activity [3, 6]: 1.16

Compound: CCCN(CCC)CCc1cccc2c1CC(=O)N2.Cl
- NF-kB SEAP reporter activity [2, 9]: 1.22
- NF-kB SEAP reporter activity [2, 10]: 1.03

Compound: O=C(CSc1nc2c(c(=O)n1-c1ccccc1)SCC2)Nc1ccc(-c2ccccc2)cn1 (library stock concentration (final ~1000-fold dilution): 10 mM)
- NF-kB SEAP reporter activity ([3]; agonist: LPS (TLR4) 0.1 ug/mL): 1.93
- NF-kB SEAP reporter activity [3, 4]: 1.03
- NF-kB SEAP reporter activity [3, 5]: 0.764
- NF-kB SEAP reporter activity [3, 6]: 0.85

Compound: O=C(CSc1nc2c(c(=O)n1-c1ccccc1)SCC2)Nc1ccc(-c2ccccc2)cn1
- NF-kB SEAP reporter activity [2, 9]: 0.962
- NF-kB SEAP reporter activity [2, 10]: 1.28

Compound: CNCCCC1c2ccccc2C=Cc2ccccc21.Cl
- NF-kB SEAP reporter activity [2, 7]: 1.28
- NF-kB SEAP reporter activity [2, 8]: 1.62

Compound: CNCCCC1c2ccccc2C=Cc2ccccc21.Cl (library stock concentration (final ~1000-fold dilution): 10 mM)
- NF-kB SEAP reporter activity ([1]; agonist: LPS (TLR4) 0.1 ug/mL): 0.947
- NF-kB SEAP reporter activity [1, 4]: 0.644
- NF-kB SEAP reporter activity [1, 5]: 0.63
- NF-kB SEAP reporter activity [1, 6]: 0.687

Compound: CCCc1nn(C)c2c(=O)[nH]c(-c3cc(S(=O)(=O)N4CCN(C)CC4)ccc3OCC)nc12
- NF-kB SEAP reporter activity [2, 12]: 1

Compound: CCCc1nn(C)c2c(=O)[nH]c(-c3cc(S(=O)(=O)N4CCN(C)CC4)ccc3OCC)nc12 (library stock concentration (final ~1000-fold dilution): 10 mM water)
- NF-kB SEAP reporter activity ([3]; agonist: LPS (TLR4) 0.1 ug/mL): 1.15
- NF-kB SEAP reporter activity [3, 4]: 1.16
- NF-kB SEAP reporter activity [3, 5]: 1.13
- NF-kB SEAP reporter activity [3, 6]: 1.05

Compound: CC(OC1OCCN(Cc2nn(P(=O)(O)O)c(=O)[nH]2)C1c1ccc(F)cc1)c1cc(C(F)(F)F)cc(C(F)(F)F)c1.CNCC(O)C(O)C(O)C(O)CO.CNCC(O)C(O)C(O)C(O)CO (stereo not given)
- NF-kB SEAP reporter activity [2, 9]: 0.547
- NF-kB SEAP reporter activity [2, 10]: 0.398

Compound: CC(OC1OCCN(Cc2nn(P(=O)(O)O)c(=O)[nH]2)C1c1ccc(F)cc1)c1cc(C(F)(F)F)cc(C(F)(F)F)c1.CNCC(O)C(O)C(O)C(O)CO.CNCC(O)C(O)C(O)C(O)CO (stereo not given) (library stock concentration (final ~1000-fold dilution): 10 mM)
- NF-kB SEAP reporter activity ([3]; agonist: LPS (TLR4) 0.1 ug/mL): 0.278
- NF-kB SEAP reporter activity [3, 4]: 0.301
- NF-kB SEAP reporter activity [3, 5]: 0.275
- NF-kB SEAP reporter activity [3, 6]: 0.189
